# ± gives the standard deviation of the averaged measurements. This is one part of the list.
# System: PfAP2-EXP AP2 domain (GST-tagged)
# Assay: gcPBM binding intensity (ln(normalized median fluorescence intensity)); higher = stronger DNA binding
# Procedure, shortened: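 Binding intensity is defined as the maximum Masliner-normalised natural-log median intensity across replicate spots for either probe orientation. It was measured on an Agilent 4 × 180k array of primer-extended double-stranded 36-bp intergenic genomic probes and negative controls, to which GST-tagged P. falciparum DNA-binding domains made in E. coli were applied for 1 h in 1× PBS with 1% milk, 0.2 mg/ml BSA, 0.5% salmon testes DNA and 0.03% Triton X-100. Detection was by Alexa488 anti-GST antibody and scanning at 488 nm.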
row,Sequence,gcPBM binding intensity (ln)
1,AATTTTTGTTACAAGATGCACTTAATTTTTCTAAAT,8.46 ± 0.29
2,AATAAAAATTCAAGTTGTACTTTTTTAAAAATACAA [XGTACX_site3949],8.12 ± 0.24
3,AAAAAATCACAACACACACACACACTAATAAAAAAA [CACACA_site8410],8.65 ± 0.46
4,TAAATATTATTATATACATGCACTTACAACTTTTTT [TGCATGCA_site877],8.7 ± 0.24
5,AAATCACATAAAACATAATCAAATGAAATATAATCA [CACACA_negctrl_site123],8.45 ± 0.34
6,ACTGTAAATTTATTCGGTACACATATAAATAATATT [XGTACX_site7346],8.59 ± 0.3
7,ATTATTTTTAAAAATTGTACAGTATAAGAGAGAAAT [XGTACX_site7094],8.73 ± 0.11
8,AATAAAAAAATATATTGTACTAATAATTATATGTTT [XGTACX_site2246],8.34 ± 0.32
9,TATTGTAAAAAGATTACACACGTTCTATATACTTTT [CACACA_site5379],8.59 ± 0.54
10,TTAATGGCAAAATAGGCACACACACCGATACATATA [CACACA_site8263],8.86 ± 0.42
11,ATAATATTTAGGTGTGCACACAAACATACATATATA [CACACA_site9120],8.99 ± 0.29
12,ACAGTAGCCAGTAACTGTACGGATTGTAGAGATCAG [XGTACX_site4873],8.69 ± 0.39
13,ATGATAATTTTTTTCTCACACACAAATATTTTAATC [CACACA_site3665],8.31 ± 0.35
14,AAAGATTCTTTGAATTGTACAAATATATTTACTCAC [XGTACX_site8772],8.68 ± 0.46
15,CAATAATATATATATTGTACATTTTTTTTTATTATT [XGTACX_site3149],8.62 ± 0.43
16,TATATTATTTTCTTTTGTACACATATATATCAGTGT [XGTACX_site664],8.74 ± 0.47
17,ATGTTCCATTTTACTTGTACTAATTTTTTCCTATCT [XGTACX_site6474],9.1 ± 0.38
18,ATAATAATAAAGTATGCATGCATATAATATAATATA [TGCATGCA_site796],9.87 ± 0.22
19,TTTTTATTGCAATACTTATATTTTTTTATGATTAAA [TGCATGCA_negctrl_site147],8.63 ± 0.26
20,TTCTCACTTTTAAATTTTATTCAAAAATAAGGAAAG [XGTACX_negctrl_site444],8.17 ± 0.37
21,ATATATATATATAAATGTACATATGTATAATTCATA [XGTACX_site6679],9.79 ± 0.2
22,ATTTCGTTCTTTTATGCACACTCAACATATAAATTA [CACACA_site8322],9.24 ± 0.38

row,Sequence,gcPBM binding intensity (ln)
1,GAGAGTAAAACAAATATACACACCATAAAGTTATAA [CACACA_site1686],8.62 ± 0.52
2,TACATAAACATTTATACACACATTATGTATACATAT [CACACA_site405],8.6 ± 0.46
3,GGATTTTTCGAATCATGTACATATTTAATTAAAAAA [XGTACX_site7939],8.46 ± 0.41
4,TATTTTTCCATATGCACACACACCGTATCTAGAATA [CACACA_site6654],8.95 ± 0.33
5,AACTTTGGCAAACACACACACACACCCACACCCACA [CACACA_site588],8.61 ± 0.43
6,TAGAATGTATGTAGTGCACACCTCTATAATATATTA [CACACA_site1873],9.27 ± 0.22
7,AAAATATATTCAACTTGTACATATATATATATATAT [XGTACX_site7629],10.3 ± 0.13
8,TTTTTTTTTTGCACGTGTACATAAAAATATATATAT [XGTACX_site3116],9.26 ± 0.13
9,TTTTTGTAATGACACACACACAAACAGAAAAAATAA [CACACA_site7062],8.81 ± 0.48
10,TTATATATTTTGATTGCACACAGAATTTAAATCATG [CACACA_site8735],8.44 ± 0.31
11,ATAAAATAAAGGAAAAATATTAAGTTTTAAGAAAAT [CACACA_negctrl_site1066],8.51 ± 0.36
12,ATATTTAAGATTTAATCACACACATATATATTATAT [CACACA_site8946],8.38 ± 0.37
13,ATATATGTGCTAAAATGTACATAGTATAATATATTT [XGTACX_site1949],8.73 ± 0.34
14,TTTAATCATTTTAGCTTACACACAAAATTTTGTTAT [CACACA_site2938],9.16 ± 0.69
15,AATATTTATATTTACACACACATAATACCTATATGT [CACACA_site6167],8.47 ± 0.35
16,TAGATACATAAAAGTGGTACATATATATATATATAT [XGTACX_site6263],10.1 ± 0.52
17,TGGAAATTCTCAGGAGTGCATATTTGCAGTTTACGT [GTGCAC_site9768],8.66 ± 0.27
18,TTTGTTGACGGACACACACACATACAGATATATATA [CACACA_site5292],8.84 ± 0.39
19,ATGGTTAAAAAAAGCATACACACTATCCTCTTTGCT [CACACA_site2552],8.53 ± 0.44
20,ATAATAAATTATTATGTACACACATAATAGTATATA [CACACA_site8538],8.45 ± 0.33
21,CCGTTGAACATATATGCACACACATAAAATAAAAAA [CACACA_site8761],8.66 ± 0.42
22,ATATTTTTTTTTTTTTGTACATATATCATTATATAT [XGTACX_site866],8.76 ± 0.38

row,Sequence,gcPBM binding intensity (ln)
1,TGGTTACTGTCATTAGTTATTTCTTGTTGACAATTA [CACACA_negctrl_site416],8.57 ± 0.47
2,TTTTTGTCTGCATACGCACACACGTGTACCATCTTA [CACACA_site1173],9.47 ± 0.41
3,GGTATAAAGAAATTTTGTACATATTTCTCCCTTTAA [XGTACX_site1874],8.47 ± 0.37
4,AAAAAAAAAAAACACACACACACACTAATATATAAA [CACACA_site8302],8.47 ± 0.56
5,CGCATACACGGACACACACACACATATATATATATA [CACACA_site4520],10.1 ± 0.34
6,TAATATATAAGAAACAAAAAAAAATAAAAATATATA [TGCATGCA_negctrl_site153],8.6 ± 0.42
7,TAAAATAATTCGTAACGTACATATGTAATATAATAT [XGTACX_site6126],8.99 ± 0.47
8,CCTTTATATTATAAAAGTACATAATATTTTATAAGT [XGTACX_site1629],8.3 ± 0.16
9,TAAATATATATCATCACACACACATACATAAATATA [CACACA_site183],8.74 ± 0.52
10,AGCTCTATATTTTACACATGCGATTTGGATATATAT [TGCATGCA_site105],8.8 ± 0.31
11,ATATTACAACGTAACGAATATTTCATAAATTCTTAA [CACACA_negctrl_site770],8.1 ± 0.32
12,TTATATAGATGGAATAGTACAGTATATATATATATA [XGTACX_site8755],10 ± 0.11
13,ATTTCTCAATCGTAATGTACAAAAAAAAGGAAAAAA [XGTACX_site1193],8.57 ± 0.57
14,ATATTATTAATATATTGTACTTTTTTTTTTTTATTT [XGTACX_site496],8.49 ± 0.38
15,ATATGTATTTAATTCACACAAAAATATGTTCATGAA [CACACA_site5223],8.29 ± 0.4
16,CACATTATGTATCATACACACAAATAAATATATAAT [CACACA_site4505],8.62 ± 0.37
17,TATAAAAATAATATTACACACATGTAAAATGCCCGT [CACACA_site7522],8.49 ± 0.31
18,TTTTTTTTGTATTTTTCACACACTCTCTATCTCTCT [CACACA_site8655],8.94 ± 0.45
19,TGAAAATAATTATAGGTGCATAAACATACGGATCTT,9.07 ± 0.099
20,ATATATTAATAATAAATTAAAAGGAGTAACATTTTC [CACACA_negctrl_site320],8.46 ± 0.38
21,ATATTTTATTTTCCATGTACACAAAAAAAAAAAAAA [XGTACX_site8327],8.48 ± 0.4
22,AATTTAATTATGGTAACACACAATAAAAAAAAATCT [CACACA_site568],8.46 ± 0.36

row,Sequence,gcPBM binding intensity (ln)
1,TTTTTTTTTTTCTTTGCACACAGATAACTTGAAATT [CACACA_site2184],8.58 ± 0.44
2,AGGTTAAAAATAAATACACACATTTTATGGGTGTAT [CACACA_site4702],8.06 ± 0.28
3,AAGAAAATAAAGGATATGAAAAATAAAAAAAAGGAG [TGCATGCA_negctrl_site265],9.21 ± 0.28
4,ATATATTATATGTACACACACATATAAGGGATTATA [CACACA_site5],8.61 ± 0.085
5,TATAAATATATATATACACACACATACACAAAAAAA [CACACA_site9191],8.96 ± 0.54
6,AAAAATATGAAGACACAATATAGAAATAAAAATATA [XGTACX_negctrl_site244],8.68 ± 0.44
7,TATTACTTGATATATACACACATATAACATAAATGC [CACACA_site7783],8.37 ± 0.49
8,ATACCTAAAAAATATACACACATATTTATAAATATA [CACACA_site7260],8.4 ± 0.4
9,TAGAATAAACCAAGAAGTACTGTTTAATGAAAAGTA [XGTACX_site5712],8.62 ± 0.47
10,TAAACAGACATATAAACACACATATAAACCGACATA [CACACA_site2478],8.69 ± 0.57
11,TATATTTATATTCTTACATTTTTTATGTTTTTTTTT [CACACA_negctrl_site1017],8.39 ± 0.3
12,AAAATAACATAAAAGAGTACTAAACCAAGATCAAAT [XGTACX_site7973],8.97 ± 0.59
13,GTCATATTATTCTTTTCACACACGCGTTAATAATAA [CACACA_site9302],9.41 ± 0.47
14,TATTATAATATGTAGCGTACATTTTTTCTTTCTTTT [XGTACX_site7831],8.94 ± 0.12
15,AAGGTTATATAAAAAAGTACGCATAAGATGTTGTTC [XGTACX_site807],8.73 ± 0.3
16,TACTGTATTATAATTATGATTGACGAAATTAAAAAT [GTGCAC_negctrl_site358],8.44 ± 0.32
17,TGAAATTTATAATAGTGTACAAAGAAAAAAAAAAAA [XGTACX_site4965],8.61 ± 0.52
18,ATTAGAAAAAAGATAGCACACACGGCCCAATATATA [CACACA_site2417],8.73 ± 0.54
19,TTTATGGATGTGTATGCATGCCTAAATAAATATATG [TGCATGCA_site916],9.01 ± 0.48
20,TCTCAAAAAAAAAAAAAAAAAAAAAAATTAAAAAAT [CACACA_negctrl_site1120],7.92 ± 0.68
21,TAAATAATGTAAAAAACATCATCAAAATGTTAATTA [CACACA_negctrl_site1768],7.99 ± 0.4
22,ACGACATATGGATGATGTACTATCTTTATTATACAT [XGTACX_site6857],8.61 ± 0.4

# Source: the supplement of paper PMC11417369
